These results are taken from the supplement of paper PMC3334620.

Over roughly 33,000 sequences, “E-score (-0.5 to 0.5)” has its median near -0.01; the highest 2% begin near 0.26. The list shows a part of the results.

In this assay the target is Ste12 (UniProt P13574). The assay can be described thus: PBM E-score (8-mer binding enrichment) (E-score (-0.5 to 0.5)); higher = stronger / more preferred TF binding; most listed sequences are background and not binding sites. To be noted: protein concentration: 200 nM; construct: GST-DNA-binding domain. The procedure, abridged: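 Bound GST-tagged yeast transcription factors, applied at about 100-200 nM to double-stranded universal all-10-mer Agilent arrays, were detected with fluorescent anti-GST. Scans were normalised with masliner. A modified Wilcoxon-Mann-Whitney statistic, the E-score, was assigned to each ungapped eight-base word pooled with its reverse complement by the Universal PBM Analysis Suite.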
CAATCTGC: the “PBM E-score” value is -0.0823.

On to ATTCCGGC, for which the “PBM E-score” value was -0.00497.

CAAACACC: the “PBM E-score” value was found to be 0.121.

On to CATCTATA, for which the “PBM E-score” value amounted to 0.0719.

For CCGCCCGG, the “PBM E-score” value was -0.0452.

As for GAGCAGTA, the “PBM E-score” value is 0.112.

For the sequence GCCTCAGC, the “PBM E-score” value is -0.226.

Consider AATTATGC, for which the “PBM E-score” value came out at 0.187.

In the case of AACGGTAC, the “PBM E-score” value stood at 0.0025.

For the sequence CTACTTTA, the “PBM E-score” value amounted to 0.0872.

With CTCGTGTC, the “PBM E-score” value was -0.0304.

With TGAGTCAA, the “PBM E-score” value was 0.0095.

Take AGCCAGCA: the “PBM E-score” value was -0.197.

With GCATTCGC, the “PBM E-score” value was -0.276.

With AATGATCA, the “PBM E-score” value came to 0.0798.

As to CTCTACAG, the “PBM E-score” value is -0.0448.

Regarding CAGTTCTA, the “PBM E-score” value was 0.00621.

For the sequence AAGATTCT, the “PBM E-score” value is -0.15.

Turning to GGATGTAC, the “PBM E-score” value was -0.226.

In the case of GTTCACGA, the “PBM E-score” value is -0.084.

In the case of AAACGCGG, the “PBM E-score” value worked out at 0.264.

Regarding ATGGCTAA, the “PBM E-score” value was -0.0443.

ATAGCTAA: the “PBM E-score” value is -0.0818.

For CCGCCGAC, the “PBM E-score” value is -0.0352.

Consider GCAAATGC, for which the “PBM E-score” value was -0.232.

With ATCGAATC, the “PBM E-score” value is 0.125.

Turning to AATTAGGT, the “PBM E-score” value came to 0.0624.

Take CGGACGTA: the “PBM E-score” value is -0.00701.

For CGTTAGTC, the “PBM E-score” value was -0.149.

In the case of ATCTCCCG, the “PBM E-score” value was -0.0525.

With ACTAGGAA, the “PBM E-score” value was -0.00085.

As to AGCGACCA, the “PBM E-score” value was -0.0697.

Regarding CTCTGAAA, the “PBM E-score” value worked out at 0.294.

For the sequence ATTAAGCC, the “PBM E-score” value was -0.0447.

Consider AAGAGAGA, for which the “PBM E-score” value is 0.0604.

Regarding GCCGGTAC, the “PBM E-score” value was -0.13.

Take GTATACAA: the “PBM E-score” value stood at 0.0647.

GCGCATCC: the “PBM E-score” value was -0.168.

CCATTGGG: the “PBM E-score” value is -0.159.

As for GGCAGTAC, the “PBM E-score” value was -0.259.

On to ATTTCAAG, for which the “PBM E-score” value is 0.0717.

Take GTACGGGA: the “PBM E-score” value is -0.0885.

Consider AATCTCAC, for which the “PBM E-score” value was -0.0196.

On to ACATGTCC, for which the “PBM E-score” value was -0.12.

AAAAGCTT: the “PBM E-score” value amounted to 0.124.

With CAGTACAA, the “PBM E-score” value is -0.0966.

On to CAGTGATA, for which the “PBM E-score” value is -0.136.

In the case of AATTTAAG, the “PBM E-score” value stood at 0.191.

As to AATTCCAG, the “PBM E-score” value was found to be 0.17.

For the sequence CATCCTCA, the “PBM E-score” value was found to be 0.0342.

On to ACGCCCTC, for which the “PBM E-score” value was -0.035.

Take ATTGGCTC: the “PBM E-score” value worked out at 0.00068.

As to CGAAGGTC, the “PBM E-score” value was -0.0868.

Regarding ATCGGGGG, the “PBM E-score” value is -0.119.

Turning to GACAAAAA, the “PBM E-score” value was 0.227.

For the sequence CGTTGCGC, the “PBM E-score” value was -0.0144.

Turning to GAATACAA, the “PBM E-score” value was found to be 0.0373.

As for AGCGAAAT, the “PBM E-score” value was -0.0364.

Consider GCGAAAGA, for which the “PBM E-score” value is -0.0959.

With CATTCCCG, the “PBM E-score” value turned out to be 0.195.

Turning to ACTGTTCT, the “PBM E-score” value was determined as 0.0329.

On to CATTAACC, for which the “PBM E-score” value came out at 0.111.

For the sequence ATCAGTCG, the “PBM E-score” value amounted to 0.0503.

On to CCTACGTC, for which the “PBM E-score” value was -0.16.

Turning to ATGAATTA, the “PBM E-score” value amounted to 0.0756.

For AAAACCAA, the “PBM E-score” value came to 0.209.

Take ATTCACTC: the “PBM E-score” value stood at 0.115.

Regarding GTGTCAAA, the “PBM E-score” value was 0.169.

In the case of AAAGGCCG, the “PBM E-score” value was -0.0431.

ACGAGACA: the “PBM E-score” value amounted to 0.0298.

For ATACTTGG, the “PBM E-score” value is -0.0285.

Turning to GGGGAGTA, the “PBM E-score” value was -0.00925.

As to AATGGGTG, the “PBM E-score” value is -0.0712.

ATCTATGG: the “PBM E-score” value was found to be 0.0194.

On to CCGGTCCA, for which the “PBM E-score” value is -0.206.

As to AGCTTAGG, the “PBM E-score” value is -0.055.

Take ACCTAGAC: the “PBM E-score” value is -0.17.

CAGGTCCG: the “PBM E-score” value is -0.107.

For AGTAGGAA, the “PBM E-score” value is -0.0126.

As to CGGGGGAA, the “PBM E-score” value is 0.0885.

AGTAGGTC: the “PBM E-score” value is -0.0912.

For AGGTCCCA, the “PBM E-score” value is -0.0308.

For the sequence CCAGGTGC, the “PBM E-score” value came to 0.0656.

Turning to GGTGTGCA, the “PBM E-score” value is -0.167.

For the sequence GTGAACCA, the “PBM E-score” value is -0.00429.

Consider TACTCCTA, for which the “PBM E-score” value is -0.266.
